Laboratory results: paper PMC4336329 (PLoS ONE, 2015)
Among all 310,000 compounds or so, about 14,000 (4.5%) showed an effect of 50% or more. The effect is printed as a negative number. This is one part of the list.

Each molecule was assayed against human ether-à-go-go-related gene (hERG) potassium channel (human, UniProt Q12809) (assay: primary screen, population patch clamp on CHO cells stably expressing hERG).
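Further: peak tail current of the secondary pulse compared with the same well before compound.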

human ether-à-go-go-related gene (hERG) potassium channel, sequence (Q12809 whole entry, looked up): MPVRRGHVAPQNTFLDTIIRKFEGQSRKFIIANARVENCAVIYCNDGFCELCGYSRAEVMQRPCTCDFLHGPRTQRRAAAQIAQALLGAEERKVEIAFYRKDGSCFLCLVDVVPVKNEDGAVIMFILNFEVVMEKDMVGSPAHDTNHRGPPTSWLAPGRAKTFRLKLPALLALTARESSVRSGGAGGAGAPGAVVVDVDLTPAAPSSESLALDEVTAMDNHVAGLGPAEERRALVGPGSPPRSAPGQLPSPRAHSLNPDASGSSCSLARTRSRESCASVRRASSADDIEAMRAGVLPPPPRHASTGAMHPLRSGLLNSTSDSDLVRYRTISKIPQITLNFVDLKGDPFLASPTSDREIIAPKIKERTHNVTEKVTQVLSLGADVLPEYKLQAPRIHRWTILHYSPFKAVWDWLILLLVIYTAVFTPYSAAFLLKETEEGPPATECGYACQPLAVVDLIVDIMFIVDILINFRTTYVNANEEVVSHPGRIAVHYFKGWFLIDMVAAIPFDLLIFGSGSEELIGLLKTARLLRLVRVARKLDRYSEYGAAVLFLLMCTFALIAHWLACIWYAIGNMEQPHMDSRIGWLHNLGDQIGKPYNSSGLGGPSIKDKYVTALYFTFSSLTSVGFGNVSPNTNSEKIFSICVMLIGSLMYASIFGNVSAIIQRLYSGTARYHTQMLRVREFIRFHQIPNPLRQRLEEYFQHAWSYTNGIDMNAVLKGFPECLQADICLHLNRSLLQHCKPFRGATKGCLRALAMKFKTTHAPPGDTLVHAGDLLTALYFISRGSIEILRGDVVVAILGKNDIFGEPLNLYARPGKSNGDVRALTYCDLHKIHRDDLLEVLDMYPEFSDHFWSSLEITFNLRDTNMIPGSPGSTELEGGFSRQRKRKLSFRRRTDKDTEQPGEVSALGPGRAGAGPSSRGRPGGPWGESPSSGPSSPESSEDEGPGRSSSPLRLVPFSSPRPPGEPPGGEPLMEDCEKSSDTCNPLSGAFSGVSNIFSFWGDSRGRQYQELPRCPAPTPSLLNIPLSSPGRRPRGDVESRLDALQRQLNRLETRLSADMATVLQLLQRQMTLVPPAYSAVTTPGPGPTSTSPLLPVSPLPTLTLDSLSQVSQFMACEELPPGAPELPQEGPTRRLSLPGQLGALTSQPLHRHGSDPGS

Compound	hERG current change (%, negative = inhibition) at 10uM [%]
CC1CN(C(=O)CSc2nnc(-c3cccs3)n2N)CC(C)O1 (stereo not shown)	9.62
CCC(CC)c1nnc(NC(=O)c2ccco2)s1	7.68
O=C(Cn1nnc(-c2ccccc2F)n1)Nc1ccc2c(c1)OCCO2	11.3
N#Cc1ccsc1NC(=O)COC(=O)CCCSc1nc2ccccc2s1	-32.9
Cc1ccc(NC(=S)N/N=C/c2ccc(OCCC(C)C)cc2)c(C)c1	-0.61
Cc1ccc(-n2nc(C)c(/C=N/n3c(C)n[nH]c3=S)c2Cl)cc1	17.3
COc1ccc(CCN2C(=NC(=O)CC(C)C)SC3CS(=O)(=O)CC32)cc1 (stereo not shown)	-14.6
Oc1ccc(-c2csc(NCc3ccco3)n2)cc1	-10.2
Cc1ccc(C(=O)C(SC(C)(C)C)n2cncn2)cc1 (stereo not shown)	-0.809
COc1ccc(-c2csc(NC(C)c3nc4cc(Cl)c(Cl)cc4n3CCOCCO)n2)cc1 (stereo not shown)	18.4
COc1cccc(-c2ocnc2C(=O)Nc2ccc(N3CCOCC3)cc2N2CCOCC2)c1	6.25
CCc1c(C)nc2[nH]nc(-c3ccccc3C)n2c1=O	7.29
CC(C)c1ccccc1NC(=O)COC(=O)C1(C)CC1(Cl)Cl (stereo not shown)	6.41
COc1ccccc1C1C(C(=O)c2sc(C)nc2C)=C(O)C(=O)N1CCN1CCOCC1 (stereo not shown)	4.26
CC(C)n1cc(CN2CCN(CCc3ccccc3)C(CCO)C2)cn1 (stereo not shown)	-53.4
O=C1C2C3C=CC(CC3)C2C(=O)N1c1ccc(F)cc1 (stereo not shown)	12.3
CCN(CC(=O)NCc1ccc(F)cc1)C(=O)c1ccc2c(c1)OCO2	-5.66
C=CCNC(=O)c1cc2c(C(F)(F)F)nn(C)c2s1	3.82
O=C(Cn1c(-c2cscn2)nc2ccccc21)Nc1ccccc1F	-0.121
Cc1ccc(C)c(NC(=O)CCN2CCc3ccccc3C2)c1	-21.6
O=C(Nc1ccc(Oc2ccc(C(=O)O)c(C(=O)O)c2)cc1)c1cccs1	44.9
Cc1cc(NCCCn2ccnc2)n2nc(-c3ccc(F)cc3)cc2n1	-14

Compound	hERG current change (%, negative = inhibition) at 10uM [%]
CCN(CC)CCCNc1nc(CN2CCOCC2)nc2sc3c(c12)CCC3	-14.3
O=C(CSc1nccc(=O)[nH]1)Nc1cccc2ccccc12	16.5
Cc1ccc(C)c(N2CCN(C(=O)c3ccccc3Br)CC2)c1	-7.63
Cc1ccc(S(=O)(=O)N2CCOCC2)cc1C(=O)Nc1ccc(C(N)=O)cc1	5.96
CN(CC(=O)Nc1ccccc1C(F)(F)F)C(=O)c1cc(-c2cccs2)nn1-c1ccccc1	-15.5
COC(=O)c1ccc2nc(C(F)(F)F)[nH]c2c1	8.9
Cc1cccc(C)c1N1CCN(S(=O)(=O)N2CCOCC2)CC1	-32.4
Cc1cc(C)nc(SCC(=O)NCc2ccco2)n1	2.76
Cc1nc(SCC(=O)OCc2ccccc2)c(C#N)c(-c2ccccc2)c1C(=O)Nc1ccccc1	15.7
CCN(CC)S(=O)(=O)c1ccc2oc(C(=O)NCc3ccc(F)cc3)c(C)c2c1	12.8
O=C(CCCc1ccccc1)NC1CC1	-2.35
Cn1ncc2c(N3CCN(c4ccc(Cl)c(Cl)c4)CC3)ncnc21	-18.3
O=C(C1CCCO1)N1CCN(C(=S)Nc2ccc(F)c(Cl)c2)CC1 (stereo not shown)	-12
Nc1nonc1-n1nnc(C(=O)N/N=C/c2cccnc2)c1CSc1ccccc1	3.22
COc1ccc(CCN2C(=O)C3C4CC(C5C(C(=O)NN)=NOC45)C3C2=O)cc1OC (stereo not shown)	7.3
O=C(CCS(=O)(=O)c1ccc(Cl)cc1)Nc1ccccc1Br	20.6
Cn1c(=O)c2c(ncn2CC(O)CNc2ccc(F)cc2)n(C)c1=O (stereo not shown)	1.35
O=C(/C=C/c1ccccc1[N+](=O)[O-])N1CCOCC1	15.5
Cc1ccccc1C(=O)N/N=C1/SCC(=O)N1Cc1ccc2c(c1)OCO2	-8.73
C[C@H](CCC(=O)NCC(=O)O)[C@H]1CC[C@H]2[C@@H]3[C@H](O)C[C@@H]4C[C@H](O)CC[C@]4(C)[C@H]3C[C@H](O)[C@]12C	18.4
Cc1sc(NC(=O)C2=COCCO2)nc1-c1ccc(F)cc1	15.5
CCOC(=O)C1=NN(N=O)C2(CC(=O)N(c3cc(C)cc(C)c3)C2=O)C1 (stereo not shown)	-4.22

Compound	hERG current change (%, negative = inhibition) at 10uM [%]
O=C(c1cc2cc([N+](=O)[O-])ccc2oc1=O)N1CCN(C2CCCCC2)CC1	-72.5
COc1ccccc1C(=O)NC(=O)CSc1cccc[n+]1[O-]	13.6
CCCCC1=CC2=C(c3ccco3)C(=O)C(C)(OC(=O)c3ccc(OC)cc3)C(=O)C2=CN1CCCN(CC)CC (stereo not shown)	2.5
O=C(Nc1ccccc1)c1ccc(S(=O)(=O)N(CCO)CCO)cc1	3.74
COC(=O)Cn1ncc(N(C)Cc2ccccc2)c(Cl)c1=O	-2.52
COc1ccc(C2=NO[C@@H]3C(=O)N(c4ccc(C)cc4C)C(=O)[C@H]23)cc1OC	1.08
CCOC(=O)c1c(N/N=C/c2cccnc2)n[nH]c1C	1.57
CCc1noc(C)c1C(=O)OC(C)C(=O)Nc1ccccc1OC (stereo not shown)	-12.8
CNc1ccc(Br)cc(C(=O)/C=C/c2ccc(OC)cc2OC)c1=O	4.51
Cc1ccc(C(=O)N2CCN(C)CC2)cc1S(=O)(=O)N1CCCCCC1	-25.9
Cc1ccc(C)c(-n2c(N)c(C(N)=O)sc2=S)c1	-9.17
CCOC(=O)c1cc(C(=O)c2cc(F)ccc2O)coc1=N	-3.66
C=CCN1C(=O)c2ccc(C(=O)OCC(=O)Nc3ccc(S(N)(=O)=O)cc3)cc2C1=O	-14.5
Cc1ccc(S(=O)(=O)/N=C2/C=C(Sc3ncn[nH]3)C(=O)c3ccccc32)c(C)c1	23.8
COC(=O)c1ccc(OC(=O)c2cnccn2)cc1	20.1
Cc1ccc2nc3n(c(=O)c2c1)-c1ccc(Cl)cc1C(=O)NC3Cc1ccccc1 (stereo not shown)	6.15
COc1ccc(CCNC(=O)COC(=O)c2ccc(C)s2)cc1	-5.42
Cc1ccc(NC(=O)CCN2C(=O)C3CCCCC3C2=O)cc1[N+](=O)[O-] (stereo not shown)	-14.3
CCC(=O)n1nc(-c2ccco2)nc1SCc1ccccc1	9.32
Cc1ccccc1-c1nnn(CC(=O)N2CCN(C(=O)c3ccco3)CC2)n1	-40.1
CN1CCN(NC(=O)c2cc(S(=O)(=O)N3CCOCC3)c(Cl)cc2Cl)CC1.Cl	7.95
CN1CCC(=NOc2ccc([N+](=O)[O-])cc2)CC1	-74.8

Compound	hERG current change (%, negative = inhibition) at 10uM [%]
CCN(CC)S(=O)(=O)c1ccc(N=Nc2c(N)[nH]c(=O)[nH]c2=O)cc1	28.4
COc1ccc(OC)c(CCNC(=O)c2ccc3c(c2)N(Cc2ccccc2)CCS3)c1	8.55
O=C(COC(=O)c1cccc(N2C(=O)C3CC=CCC3C2=O)c1)c1ccccc1 (stereo not shown)	14.7
Cc1cccc(Cn2c(C)nc3ccc([N+](=O)[O-])cc3c2=O)c1	-25.1
CSc1nc(=O)n2cccc(C)c2n1	4.07
O=C(CCC1CCCC1)c1c(O)c2ccccc2oc1=O	12.4
O=C1N=C(N2CCOCC2)S/C1=C\c1ccc(-c2ccccc2Cl)o1	-15.3
CN(C)c1ccc(N2C(=O)CSC2=S)cc1	11.5
CCOC(=O)C1=C(O)C(=O)N(c2ccc(S(N)(=O)=O)cc2)C1c1cccc([N+](=O)[O-])c1 (stereo not shown)	-8.34
Oc1c(Br)cc(Cl)cc1C=Nc1ccccc1Br	-9.32
CCOC(=O)C1CCCN(c2c(NCCc3ccc(C)cc3)c(=O)c2=O)C1 (stereo not shown)	-3.1
OC(Cn1c2ccccc2c2ccccc21)C[n+]1ccccc1.[O-][Cl+3]([O-])([O-])[O-] (stereo not shown)	7.25
c1cncc(CSc2nnc3ccc(-c4cccs4)nn23)c1	-39
COc1sc(SC)cc1/C=N/NC(=O)c1ccncc1	16.1
CCC1CCCCN1Cc1cc(OC)c(O)c([N+](=O)[O-])c1 (stereo not shown)	5.27
CCN(CC)S(=O)(=O)c1cccc(C(=O)Nc2ccccc2)c1	-28
COc1cccc(OCC(Cn2cnc3ccccc32)OC(C)=O)c1 (stereo not shown)	-27.3
CS(=O)(=O)N1CCc2cc(C(=O)Nc3ccccc3Br)ccc21	-3.16
CCS(=O)(=O)N1CCCC(C(=O)NCCCN2CCCC2=O)C1 (stereo not shown)	10.8
CCOc1cc(/C=N/NC(=O)c2ccccc2-n2cccc2)ccc1O	-22.8
Cc1ccc(N2C(=O)NC(=O)/C(=C/c3cnn(-c4ccc(C)cc4)c3)C2=O)cc1	26.1
Brc1c(-c2ccccc2)nc2n1Cc1ccccc1-2	21.8
